Measured values: patent US11618753B2 (priority 2018, dated 2023)

tested on: MLKL phosphorylation, HT29-L23 human colorectal adenocarcinoma cells; test: cells; conditions: read-out: pMLKL HCS Cell Assay (IC50, uM)

| Structure (SMILES) | IC50 [µM] |
| --- | --- |
| Cc1ccc(-c2cc(C(F)(F)F)c3c(N)ncnn23)cc1C(=O)Nc1cn(Cc2ccccc2)cn1 [Example 1792, 5-(4-amino-5-(trifluoromethyl)pyrrolo[2,1-f][1,2,4]triazin-7-yl)-N-(1-benzyl-1H-imidazol-4-yl)-2-methylbenzamide] | 0.00037 |
| Cc1ccc(-c2cc(C(F)(F)F)c3c(N)ncnn23)cc1C(=O)Nc1ccn(Cc2ccccc2)n1 [Example 1793, 5-(4-amino-5-(trifluoromethyl)pyrrolo[2,1-f][1,2,4]triazin-7-yl)-N-(1-benzyl-1H-pyrazol-3-yl)-2-methylbenzamide] | 0.0029 |
| Cc1ccc(-c2cc(C(F)(F)F)c3c(N)ncnn23)cc1C(=O)Nc1cnn(C(C)c2ccc(F)cc2)c1 (centres unmarked) [Example 1794, 5-(4-amino-5-(trifluoromethyl)pyrrolo[2,1-f][1,2,4]triazin-7-yl)-N-(1-(1-(4-fluorophenyl)ethyl)-1H-pyrazol-4-yl)-2-methylbenzamide] | 0.001 |
| Cc1ccc(-c2cc(C(F)(F)F)c3c(N)ncnn23)cc1C(=O)Nc1ncn(Cc2ccccc2)c1C [Example 1795, 5-(4-amino-5-(trifluoromethyl)pyrrolo[2,1-f][1,2,4]triazin-7-yl)-N-(1-benzyl-5-methyl-1H-imidazol-4-yl)-2-methylbenzamide] | 0.01 |
| COc1ncc(-c2cc(C(F)(F)F)c3c(N)ncnn23)cc1C(=O)Nc1ncn(Cc2ccccc2)c1C [Example 1796, 5-(4-amino-5-(trifluoromethyl)pyrrolo[2,1-f][1,2,4]triazin-7-yl)-N-(1-benzyl-5-methyl-1H-imidazol-4-yl)-2-methoxynicotinamide] | 0.243 |
| Cc1ncc(-c2cc(C(F)(F)F)c3c(N)ncnn23)cc1C(=O)Nc1ncn(Cc2ccccc2)c1C [Example 1797, 5-(4-amino-5-(trifluoromethyl)pyrrolo[2,1-f][1,2,4]triazin-7-yl)-N-(1-benzyl-5-methyl-1H-imidazol-4-yl)-2-methylnicotinamide] | 0.0084 |
| COc1ncc(-c2cc(C(F)(F)F)c3c(N)ncnn23)cc1C(=O)Nc1cn(C(c2ccccc2)C(F)(F)F)cn1 (centres unmarked) [Example 1798, 5-(4-amino-5-(trifluoromethyl)pyrrolo[2,1-f][1,2,4]triazin-7-yl)-2-methoxy-N-(1-(2,2,2-trifluoro-1-phenylethyl)-1H-imidazol-4-yl)nicotinamide] | 0.015 |
| Cc1ncc(-c2cc(C(F)(F)F)c3c(N)ncnn23)cc1C(=O)Nc1cn(C(c2ccccc2)C(F)(F)F)cn1 (centres unmarked) [Example 1799, 5-(4-amino-5-(trifluoromethyl)pyrrolo[2,1-f][1,2,4]triazin-7-yl)-2-methyl-N-(1-(2,2,2-trifluoro-1-phenylethyl)-1H-imidazol-4-yl)nicotinamide] | 0.0046 |
| Cc1ccc(-c2cc(C(F)(F)F)c3c(N)ncnn23)cc1C(=O)Nc1cn(C(c2ccccc2)C(F)(F)F)cn1 (centres unmarked) [Example 1800, 5-(4-amino-5-(trifluoromethyl)pyrrolo[2,1-f][1,2,4]triazin-7-yl)-2-methyl-N-(1-(2,2,2-trifluoro-1-phenylethyl)-1H-imidazol-4-yl)benzamide] | 0.003 |
| COc1ncc(-c2cc(C(F)(F)F)c3c(N)ncnn23)cc1C(=O)Nc1cn(Cc2ccc(F)cc2)cn1 [Example 1801, 5-(4-amino-5-(trifluoromethyl)pyrrolo[2,1-f][1,2,4]triazin-7-yl)-N-(1-(4-fluorobenzyl)-1H-imidazol-4-yl)-2-methoxynicotinamide] | 0.0079 |
| Cc1ncc(-c2cc(C(F)(F)F)c3c(N)ncnn23)cc1C(=O)Nc1cn(Cc2ccc(F)cc2)cn1 [Example 1802, 5-(4-amino-5-(trifluoromethyl)pyrrolo[2,1-f][1,2,4]triazin-7-yl)-N-(1-(4-fluorobenzyl)-1H-imidazol-4-yl)-2-methylnicotinamide] | 0.00045 |
| Cc1ccc(-c2cc(C(F)(F)F)c3c(N)ncnn23)cc1C(=O)Nc1cn(Cc2ccc(F)cc2)cn1 [Example 1803, 5-(4-amino-5-(trifluoromethyl)pyrrolo[2,1-f][1,2,4]triazin-7-yl)-N-(1-(4-fluorobenzyl)-1H-imidazol-4-yl)-2-methylbenzamide] | 0.00086 |
| COc1ncc(-c2cc(C(F)(F)F)c3c(N)ncnn23)cc1C(=O)Nc1cn(Cc2ccc(C(F)(F)F)cc2)cn1 [Example 1804, 5-(4-amino-5-(trifluoromethyl)pyrrolo[2,1-f][1,2,4]triazin-7-yl)-2-methoxy-N-(1-(4-(trifluoromethyl)benzyl)-1H-imidazol-4-yl)nicotinamide] | 0.42 |
| Cc1ncc(-c2cc(C(F)(F)F)c3c(N)ncnn23)cc1C(=O)Nc1cn(Cc2ccc(C(F)(F)F)cc2)cn1 [Example 1805, 5-(4-amino-5-(trifluoromethyl)pyrrolo[2,1-f][1,2,4]triazin-7-yl)-2-methyl-N-(1-(4-(trifluoromethyl)benzyl)-1H-imidazol-4-yl)nicotinamide] | 0.002 |
| Cc1ccc(-c2cc(C(F)(F)F)c3c(N)ncnn23)cc1C(=O)Nc1cn(Cc2ccc(C(F)(F)F)cc2)cn1 [Example 1806, 5-(4-amino-5-(trifluoromethyl)pyrrolo[2,1-f][1,2,4]triazin-7-yl)-2-methyl-N-(1-(4-(trifluoromethyl)benzyl)-1H-imidazol-4-yl)benzamide] | 0.0022 |
| COc1ncc(-c2cc(C(F)(F)F)c3c(N)ncnn23)cc1C(=O)Nc1cn(Cc2ccc(Cl)cc2)cn1 [Example 1807, 5-(4-amino-5-(trifluoromethyl)pyrrolo[2,1-f][1,2,4]triazin-7-yl)-N-(1-(4-chlorobenzyl)-1H-imidazol-4-yl)-2-methoxynicotinamide] | 0.016 |
| Cc1ncc(-c2cc(C(F)(F)F)c3c(N)ncnn23)cc1C(=O)Nc1cn(Cc2ccc(Cl)cc2)cn1 [Example 1808, 5-(4-amino-5-(trifluoromethyl)pyrrolo[2,1-f][1,2,4]triazin-7-yl)-N-(1-(4-chlorobenzyl)-1H-imidazol-4-yl)-2-methylnicotinamide] | 0.00075 |
| Cc1ccc(-c2cc(C(F)(F)F)c3c(N)ncnn23)cc1C(=O)Nc1cn(Cc2ccc(Cl)cc2)cn1 [Example 1809, 5-(4-amino-5-(trifluoromethyl)pyrrolo[2,1-f][1,2,4]triazin-7-yl)-N-(1-(4-chlorobenzyl)-1H-imidazol-4-yl)-2-methylbenzamide] | 0.001 |
| Cc1ncc(-c2cc(C(F)(F)F)c3c(N)ncnn23)cc1C(=O)Nc1ccn(Cc2ccc(F)cc2)n1 [Example 1810, 5-(4-amino-5-(trifluoromethyl)pyrrolo[2,1-f][1,2,4]triazin-7-yl)-N-(1-(4-fluorobenzyl)-1H-pyrazol-3-yl)-2-methylnicotinamide] | 0.0028 |
| Cc1ccc(-c2cc(C(F)(F)F)c3c(N)ncnn23)cc1C(=O)Nc1ccn(Cc2ccc(F)cc2)n1 [Example 1811, 5-(4-amino-5-(trifluoromethyl)pyrrolo[2,1-f][1,2,4]triazin-7-yl)-N-(1-(4-fluorobenzyl)-1H-pyrazol-3-yl)-2-methylbenzamide] | 0.0032 |
| Cc1ncc(-c2cc(C(F)(F)F)c3c(N)ncnn23)cc1C(=O)Nc1cc(C)n(Cc2ccc(F)cc2)n1 [Example 1812, 5-(4-amino-5-(trifluoromethyl)pyrrolo[2,1-f][1,2,4]triazin-7-yl)-N-(1-(4-fluorobenzyl)-5-methyl-1H-pyrazol-3-yl)-2-methylnicotinamide] | 0.00057 |
| Cc1ccc(-c2cc(C(F)(F)F)c3c(N)ncnn23)cc1C(=O)Nc1cc(C)n(Cc2ccc(F)cc2)n1 [Example 1813, 5-(4-amino-5-(trifluoromethyl)pyrrolo[2,1-f][1,2,4]triazin-7-yl)-N-(1-(4-fluorobenzyl)-5-methyl-1H-pyrazol-3-yl)-2-methylbenzamide] | 0.0023 |
| Cc1ncc(-c2cc(C(F)(F)F)c3c(N)ncnn23)cc1C(=O)Nc1cnn(C(c2ccccc2)C(F)(F)F)c1 (centres unmarked) [Example 1814, 5-(4-amino-5-(trifluoromethyl)pyrrolo[2,1-f][1,2,4]triazin-7-yl)-2-methyl-N-(1-(2,2,2-trifluoro-1-phenylethyl)-1H-pyrazol-4-yl)nicotinamide] | 0.0021 |
| Cc1ccc(-c2cc(C(F)(F)F)c3c(N)ncnn23)cc1C(=O)Nc1cnn(C(c2ccccc2)C(F)(F)F)c1 (centres unmarked) [Example 1815, 5-(4-amino-5-(trifluoromethyl)pyrrolo[2,1-f][1,2,4]triazin-7-yl)-2-methyl-N-(1-(2,2,2-trifluoro-1-phenylethyl)-1H-pyrazol-4-yl)benzamide] | 0.0029 |
| Cc1ncc(-c2cc(C(F)(F)F)c3c(N)ncnn23)cc1C(=O)Nc1ccn(C(c2ccccc2)C(F)(F)F)n1 (centres unmarked) [Example 1816, 5-(4-amino-5-(trifluoromethyl)pyrrolo[2,1-f][1,2,4]triazin-7-yl)-2-methyl-N-(1-(2,2,2-trifluoro-1-phenylethyl)-1H-pyrazol-3-yl)nicotinamide] | 0.0056 |
| Cc1ccc(-c2cc(C(F)(F)F)c3c(N)ncnn23)cc1C(=O)Nc1cn(C(c2ccc(F)cc2)C(F)(F)F)cn1 (centres unmarked) [Example 1818, 5-(4-amino-5-(trifluoromethyl)pyrrolo[2,1-f][1,2,4]triazin-7-yl)-2-methyl-N-(1-(2,2,2-trifluoro-1-(4-fluorophenyl)ethyl)-1H-imidazol-4-yl)benzamide] | 0.0051 |
| Cc1ncc(-c2cc(C(F)(F)F)c3c(N)ncnn23)cc1C(=O)Nc1cn(C(c2ccc(F)cc2)C(F)(F)F)cn1 (centres unmarked) [Example 1819, 5-(4-amino-5-(trifluoromethyl)pyrrolo[2,1-f][1,2,4]triazin-7-yl)-2-methyl-N-(1-(2,2,2-trifluoro-1-(4-fluorophenyl)ethyl)-1H-imidazol-4-yl)nicotinamide] | 0.0022 |
| COc1ncc(-c2cc(C(F)(F)F)c3c(N)ncnn23)cc1C(=O)N[C@@H]1CN(CC(C)(O)C(F)(F)F)C[C@@H]1F (stereo partly drawn) [Example 1820, 5-(4-amino-5-(trifluoromethyl)pyrrolo[2,1-f][1,2,4]triazin-7-yl)-N-((3R,4S)-4-fluoro-1-(3,3,3-trifluoro-2-hydroxy-2-methylpropyl)pyrrolidin-3-yl)-2-methoxynicotinamide] | 0.013 |
| COc1ncc(-c2cc(C(F)(F)F)c3c(N)ncnn23)cc1C(=O)N[C@@H]1CN(CC(O)CC(F)(F)F)C[C@@H]1F (stereo partly drawn) [Example 1821, 5-(4-amino-5-(trifluoromethyl)pyrrolo[2,1-f][1,2,4]triazin-7-yl)-N-((3R,4S)-4-fluoro-1-(4,4,4-trifluoro-2-hydroxybutyl)pyrrolidin-3-yl)-2-methoxynicotinamide] | 0.014 |
